The full ranking holds about 33,000 sequences; the median of “E-score (-0.5 to 0.5)” is about -0.01, and the highest 2% start at about 0.26. The list shows a part of the results.
Each sequence was assayed against Ste12 (UniProt P13574) (assay: PBM E-score (8-mer binding enrichment) (E-score (-0.5 to 0.5)); higher = stronger / more preferred TF binding; most listed sequences are background and not binding sites). Conditions: protein concentration: 200 nM; construct: GST-DNA-binding domain.
Procedure, shortened: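 Detection of bound protein used fluorescent anti-GST, with scans normalised by masliner. The proteins were GST-tagged yeast transcription factors applied at about 100-200 nM to universal all-10-mer Agilent arrays made double-stranded by primer extension. Each ungapped eight-base word, pooled with its reverse complement, was scored with an E-score from the Universal PBM Analysis Suite.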

Row | Sequence | PBM E-score
1 | CTCCTGAC | -0.0416
2 | CAGGTATG | 0.0422
3 | AGTATTGG | -0.0255
4 | ACCGTGCT | -0.08
5 | GGACCGCC | -0.112
6 | AAACGAAT | 0.106
7 | AGAACGAC | 0.0693
8 | CAGTAAGG | -0.0592
9 | CTTAGCGC | 0.187
10 | CGTATCAG | 0.105
11 | AGAATCGA | 0.0476
12 | ACGCCTAG | -0.0242
13 | AAACGGTT | 0.138
14 | CGGGTCAC | 0.00395
15 | GTCGGTCA | -0.229
16 | CACGAGAC | -0.00237
17 | CCGAACTA | 0.0133
18 | ATTCAGAG | 0.0638
19 | AACTTGGT | -0.0649
20 | AGACTGAA | 0.0655
21 | CCCGTTCG | -0.0295
22 | ACCTCCAT | -0.0171
23 | AAAGTCCG | -0.145
24 | TAGATTCA | -0.0579

Row | Sequence | PBM E-score
25 | ATCCAGCC | -0.0107
26 | CTTATGTA | 0.0688
27 | TAACGTAA | 0.191
28 | ACACGCGA | -0.0426
29 | CCCGGACA | 0.073
30 | CGGACAGA | -0.116
31 | GTGCCGTA | -0.15
32 | GGTACGCA | -0.124
33 | GTGCGTCA | -0.139
34 | CAACTAGC | 0.0562
35 | CTTTTAAC | 0.0424
36 | CTCTCAGA | -0.0714
37 | ACTCGTGG | -0.103
38 | CAGATAAC | -0.0355
39 | AATATGAC | 0.0945
40 | CCTATTAA | 0.00994
41 | ACCGTTAG | -0.196
42 | AGCCAATG | -0.147
43 | GTGTCGTA | 0.0677
44 | ACCGGTAA | 0.0469
45 | AATTATTG | 0.16
46 | GAGGAGGA | -0.0989
47 | CCCTGCCG | -0.05
48 | AAACAACC | 0.277

Row | Sequence | PBM E-score
49 | GTTAGAAA | 0.0643
50 | AAAGAGTT | 0.0105
51 | CCGCCAAC | -0.00677
52 | GTGAGAAA | 0.189
53 | CCACGGGG | -0.195
54 | ATTTCTGC | 0.0881
55 | CTTAAGCA | 0.0722
56 | AGAGAGGA | -0.0863
57 | GCCGTACA | -0.0834
58 | CCCGCATA | 0.198
59 | ACTTAGCG | 0.0815
60 | AGGCAAAC | 0.00641
61 | ATCACCAC | 0.0123
62 | ATAAGGGC | -0.141
63 | CACCGCTC | 0.089
64 | GTCGAACA | 0.103
65 | ACTTTGAA | 0.2
66 | CAGTAGTC | -0.0734
67 | ATGATATG | 0.0998
68 | CAGAGAGG | -0.0742
69 | GGAGTGAC | 0.0133
70 | CCTTCTCG | -0.152
71 | GTGCACGA | 0.0747
72 | GCGGAAAA | 0.253

Row | Sequence | PBM E-score
73 | GCAAGGAC | -0.256
74 | GCACCTGA | 0.0667
75 | AAGACAAC | 0.0377
76 | ACACAGTA | 0.143
77 | ATTTGACC | 0.0785
78 | AAGTCTAG | -0.109
79 | ACCATGAC | -0.0636
80 | AACGATGG | 0.0516
81 | ACAGAACT | 0.203
82 | ACCCTGAT | -0.0303
83 | AGATGAGA | 0.0215
84 | AATCTAAA | 0.191
85 | CTGATATC | 0.11
86 | CTGCACAA | -0.0847
87 | CAACCGAC | 0.0141
88 | AGCACACA | -0.114
89 | AGGATCTC | -0.161
90 | AAACACTC | 0.288
91 | AGGAGTCC | -0.174
92 | ATGGGTGC | 0.0284
93 | CTTCGTGA | 0.00137
94 | CCGAGTTA | -0.0289
